# Source: PubChem BioAssay AID485367 (National Center for Advancing Translational Sciences (NCATS), 2010)
# Screen size: about 330,000 compounds; about 560 (0.17%) were called active. This list was built around the results that the source calls inconclusive (neither active nor inactive); the mix of calls is not that of the screen. Calls follow the shape of the dose curve; as a rule, active = well fitted inhibition curve with a large enough effect; inconclusive = small, poorly fitted or top-dose-only effect, or effect the other way; inactive = flat fitted curve, though single readings scatter. Potencies of inconclusive entries are left out as doubtful fits.
# Target: ATP-dependent 6-phosphofructokinase (Trypanosoma brucei brucei) (UniProt O15648)
# Sequence of UniProt O15648 (O15648 whole entry, looked up): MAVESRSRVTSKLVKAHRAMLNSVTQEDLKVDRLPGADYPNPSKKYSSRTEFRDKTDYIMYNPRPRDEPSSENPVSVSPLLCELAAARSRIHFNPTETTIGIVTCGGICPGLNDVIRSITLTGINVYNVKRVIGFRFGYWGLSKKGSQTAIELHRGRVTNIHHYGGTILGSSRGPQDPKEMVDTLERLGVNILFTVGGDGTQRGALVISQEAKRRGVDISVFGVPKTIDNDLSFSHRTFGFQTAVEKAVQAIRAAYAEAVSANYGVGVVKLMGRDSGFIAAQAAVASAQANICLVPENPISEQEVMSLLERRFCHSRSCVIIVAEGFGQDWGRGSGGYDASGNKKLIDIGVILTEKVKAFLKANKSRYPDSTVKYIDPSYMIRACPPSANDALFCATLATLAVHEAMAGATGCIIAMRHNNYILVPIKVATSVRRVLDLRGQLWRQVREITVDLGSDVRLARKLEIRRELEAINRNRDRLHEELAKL
# Experiment: qHTS Assay to Find Inhibitors of T. brucei phosphofructokinase; also: nearly all actives have a fitted effect of over 60% in size;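 as to activity, negative = inhibition: 0% = uninhibited 1x PFK enzyme wells and -100% = no-enzyme wells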
# Conditions: T. brucei PFK, ADP-Glo luminescence; activity, negative = inhibition: at 57.5 µM (top of the series)
# Outline: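 PFK 1.25 nM, F6P 0.5 mM, ATP 0.1 mM, 0.1 M TEA pH 8.0, 5 mM MgCl2, 0.01% Tween20, 0.1% BSA; 45 min RT. ADP-Glo readout. qHTS titration up to 57 uM; curves fitted, compounds curve-classed.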
# Potency is read from the fitted curve at half-maximal effect; tags tell the direction and shape of the fitted curve.
Compound,Potency,"activity, negative = inhibition"
Cc1cccc(Sc2c([N+](=O)[O-])ncn2C)n1,"inconclusive [falling, single point]",
Cc1ccc(-c2c[n+](Cc3ccc(Cl)c(Cl)c3)c3n2CCC3)cc1,active: 6.01 µM,
C/C=C(\C)C(=O)OC1CC(C)(C)C[C@H]2C3=CC[C@@H]4[C@@]5(C)CCC(O[C@@H]6O[C@@H](C(=O)O)[C@@H](O)C(O[C@@H]7OC[C@H](O)[C@@H](O)[C@@H]7O[C@@H]7OC(CO)C(O)[C@@H](O)[C@@H]7O)C6O[C@@H]6OC(CO)C(O)C(O)C6O)[C@@](C)(CO)[C@@H]5CC[C@]4(C)[C@]3(C)CC(O)[C@@]12CO (stereo not given in full),"inconclusive [falling, single point]",
COC(=O)CC1C(=O)NCCN1C(=O)Nc1ccc(Cl)c(Cl)c1 (stereo not given),"inconclusive [falling, partial curve]",
CCC(Oc1ccccc1)C(=O)NC1C(=O)N2C1SC(C)(C)C2C(=O)O (stereo not given),,inactive: -3.13%
CCn1c2ccccc2c2nc3cc(S(=O)(=O)N4CCOCC4)ccc3nc21,"inconclusive [falling, full curve]",
O=C(COc1ccc(Cl)cc1)N/N=C/CCc1ccccc1,"inconclusive [falling, single point]",
CCOC(=O)CN1C(=O)SC(Nc2ccc(C)cc2)C1=O (stereo not given),"inconclusive [activator, single point]",
COC(=O)Nc1ccccc1C(=O)N1CCC(O)(c2ccc(Cl)cc2)CC1,"inconclusive [falling, single point]",
COc1cc(C2CC(=O)N3CN(c4ccccc4C)CSC3=C2C#N)cc(OC)c1OC (stereo not given),,inactive: -15.9%
Oc1ccc(C2CNCc3sccc32)cc1O (stereo not given),"inconclusive [falling, partial curve]",
COc1ccc(N(CC(=O)Nc2cc(Cl)ccc2OC)S(=O)(=O)c2c(C)noc2C)cc1,,inactive: -3.21%
Cc1ccccc1NC(=O)CCC(=O)OCC(=O)c1ccc(-c2ccccc2)cc1,,inactive: -3.01%
O=C(O)c1ccccc1SC1CC(=O)N(c2ccc3c(c2)OCO3)C1=O (stereo not given),"inconclusive [activator, partial curve]",
O=[N+]([O-])c1c(NCCCO)cc(Sc2nc3ccccc3s2)c2nonc12,"inconclusive [falling, full curve]",
CC(=O)Nc1ccc(NC(=O)c2cccc(S(=O)(=O)N(C)C3CCCCC3)c2)cc1,"inconclusive [falling, single point]",
Cc1ccc(/C=C2/SC(=S)N(C3CCCCC3)C2=O)o1,,inactive: -0.256%
COc1ccc(C(=O)CSC#N)cc1OC,"inconclusive [falling, partial curve]",
CCNC(=S)Nc1ccc(Cl)c([N+](=O)[O-])c1,"inconclusive [falling, single point]",
CC(=O)N1CCN(CC(=O)Nc2ccc(Cl)c(S(=O)(=O)N(C)C)c2)CC1,"inconclusive [falling, single point]",
Cc1ccc(NC(=O)c2ccc(OC(=O)c3ccco3)cc2)cc1,,inactive: -1.75%
O=C(COC(=O)CNC(=O)c1ccccc1F)Nc1ccc2[nH]c(=O)[nH]c2c1,"inconclusive [falling, single point]",
O=C(C[n+]1ccccc1)N/N=C/c1ccc(Cl)c(Cl)c1,"inconclusive [falling, single point]",
CCCN1CCc2c(sc(NC(=S)NC(=O)c3ccccc3)c2C#N)C1,"inconclusive [falling, single point]",

Compound,Potency,"activity, negative = inhibition"
Cc1ccc(N/C=C(\C2OC(=O)c3ccccc32)[N+](=O)[O-])c(C)c1 (stereo not given),"inconclusive [activator, full curve]",
CNC(=S)N1N=C(c2ccc(C)cc2)CC1c1ccc(OC)cc1 (stereo not given),,inactive: 0.201%
COc1ccc(/C=C2\CCc3c2nc2ccccc2c3C(=O)O)cc1OC,,inactive: 0.706%
COc1ccc(OC)c(NC(=O)NCCCCc2ccccc2)c1,"inconclusive [falling, full curve, poor fit]",
CC(C)(C)CC(C)(C)NCC(=O)Nc1c2c(nc3ccccc13)CCC2,"inconclusive [falling, single point]",
O=C(NC(=S)N(CC1CCC1)CC1CCCO1)c1cccc([N+](=O)[O-])c1 (stereo not given),"inconclusive [activator, single point]",
O=C(O)COc1ccccc1C(Nc1cccnc1)c1cc(Cl)c2cccnc2c1O (stereo not given),"inconclusive [falling, single point]",
O=C(O)C1OC(Oc2cc3oc(-c4ccccc4)cc(=O)c3c(O)c2O)C(O)C(O)C1O (stereo not given),active: 6.75 µM,
COc1ccc(CCNC(=O)COC(=O)CNS(=O)(=O)c2ccc(SC)c([N+](=O)[O-])c2)cc1,"inconclusive [activator, partial curve]",
Cc1cc[n+](-c2[nH]c(=O)sc2/C=N/N=C(\[O-])c2ccccc2)cc1C,"inconclusive [falling, single point]",
CCNC(=O)O/N=C(\C)c1sc(-c2ccccc2)nc1C,,inactive: -0.021%
C=CCc1cc(C)ccc1OCCOCCn1ccnc1,"inconclusive [falling, single point]",
COc1cc(C(=O)NCc2nc(C)cs2)ccc1OC1CCN(C(C)=O)CC1,"inconclusive [falling, single point]",
Cc1ccc(C)c(OCCCC(C)(C)C(=O)O)c1,"inconclusive [activator, single point]",
O=c1[nH]c(/C=C/c2cccnc2)c([N+](=O)[O-])c(=O)[nH]1,,inactive: 1.01%
O=C(COc1ccccc1)N1CCN(S(=O)(=O)c2cccs2)CC1,,inactive: 25.5%
O=C(Cc1ccc(F)cc1)N/N=C/c1ccncc1,"inconclusive [falling, single point]",
O=C(NCc1ccccc1)c1onc(CSc2ccc(F)cc2)c1C(=O)NCCCN1CCOCC1,,inactive: -1.99% [at 0.46 µM]
CCCN1C(=O)/C(=C/c2ccc(C)o2)NC1=S,"inconclusive [falling, single point]",
COC(=O)c1cc(C(=O)c2cc(F)ccc2O)cn2c(=O)c3c(C)c(C)sc3nc12,"inconclusive [falling, single point]",
CCOc1ccccc1N=CC1=C(O)CC(c2ccccc2)CC1=O (stereo not given),,inactive: 4.75%
CN(C)[C@@H]1C(=O)C(C(=O)NCN2CCCC2)=C(O)[C@@]2(O)C(=O)C3=C(O)c4c(O)cccc4[C@@](C)(O)C3CC12 (stereo not given in full),"inconclusive [falling, full curve]",
CCOc1ccc(S(=O)(=O)N(CC)CC)cc1NC(=O)CSCc1c(C)noc1C,"inconclusive [activator, full curve, poor fit]",
COc1ccc(C(=S)N(C)C)cc1OC,,inactive: 5.94%

Compound,Potency,"activity, negative = inhibition"
O=C(NCc1ccc(Cl)c(Cl)c1)c1ccco1,active: 9.53 µM,
CCOC(=O)c1c(N2C(=O)C=CC2=O)sc(C)c1C,"inconclusive [falling, single point]",
NS(=O)(=O)c1ccc(N/N=C/c2ccc(O)c(O)c2O)c([N+](=O)[O-])c1,"inconclusive [falling, partial curve]",
O=C(O)c1ccccc1N=Cc1c(O)n(-c2nccs2)c(=O)c2ccccc12,"inconclusive [activator, single point]",
N=c1ccn(Cc2ccc(Cl)cc2)cc1,active: 10.7 µM,
Cc1[nH]c2ccc(F)cc2c1CCN(Cc1ccncc1)C(=S)Nc1ccc(F)cc1,,inactive: -15.4%
COc1ccc2c3c(c(=O)oc2c1)C1O[C@](CCCCN2C(=O)c4ccccc4C2=O)(Cc2cc(OC)c(OC)cc21)O3,,inactive: -0.281% [at 11.5 µM]
CCOC(=O)Cn1c(=N)n(CCOc2cccc(C)c2)c2ccccc21,active: 13.5 µM,
CCOC(=O)c1sc(=S)n(C)c1NC(=O)c1ccccc1C,"inconclusive [falling, partial curve]",
CCN1CCN(C(c2ccc(F)cc2)c2nnnn2Cc2ccc3c(c2)OCO3)CC1 (stereo not given),"inconclusive [falling, single point]",
CCOc1ccc2noc3c2c1C(=O)c1ccccc1-3,,inactive: -3.61%
COc1cc(C(=O)Oc2c(CN3CCOCC3)cc(Cl)c3cccnc23)cc(OC)c1OC,,inactive: 0.786%
O=[N+]([O-])c1ccc(-c2nn(-c3ccccc3)cc2/C=N/n2c(-c3ccncc3)n[nH]c2=S)cc1,,inactive: 0.342%
O=C(c1cc(Cl)ccc1Cl)N1CCN(c2ccccn2)CC1,"inconclusive [falling, full curve]",
O=C(COC(=O)c1cccc(S(=O)(=O)N2CCc3ccccc3C2)c1)NCc1ccco1,active: 10.7 µM,
Nc1ccc(-c2cc(-c3ccc(N)cc3)nc(-c3ccccc3)n2)cc1,"inconclusive [falling, single point]",
COc1ccc(C(=O)/C=C/c2ccccc2)c(OC)c1,,inactive: 1.26%
CC(C)(C)c1ccc(CSc2nc(N)cc(=O)[nH]2)cc1,"inconclusive [falling, single point]",
O=C(N/N=C\c1ccc[nH]1)C1COc2ccccc2O1 (stereo not given),active: 23.9 µM,
CCn1c(=O)c(C(=O)Nc2nc3ccccc3[nH]2)c(O)c2ccccc21,"inconclusive [activator, full curve]",
COc1cc(/C=N/NC(=O)c2[nH]nc3c2CCc2ccccc2-3)ccc1O,,inactive: -2.34%
O=C(CSc1nnc(NC(=O)c2ccccc2)s1)NCc1ccco1,"inconclusive [falling, single point]",
